{"source": "the RNAGym collection of RNA variant scans (doi:10.1093/nar/gkz1192)", "parents": {"B1": {"name": "CPEB3 Ribozyme (parent)", "chain": "UAACAGGGGGCCACAGCAGAAGCGUUCACGUCGCAGCCCCUGUCAGAUUCUGGUGAAUCUGCGAAUUCUGCUGUAUAUCUC"}}, "note": "The source gives no read counts; variants with many changes may rest on few reads."}
{"variants_of": "B1", "assay": "self-cleavage, relative activity (ratio to wild type); higher = more cleavage; in vitro, sequencing", "how_it_was_run": "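Relative activity was defined as the cleaved/total read fraction for a variant divided by the same fraction for the unmutated ribozyme. CPEB3 self-cleaving ribozyme libraries were made by rounds of error-prone PCR, barcoded, and transcribed in vitro with T7 RNA polymerase for 5 hours at 37°C, and cleavage ran through transcription plus a 15 min DNase I step before EDTA. Illumina sequencing of template-switched reverse transcripts gave the reads, and DNA sequencing mapped the barcodes. Averages come from three batches, using variants with at least 5 reads.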"}
{"variant": "A21G U26A G30U U54C A57G U66C U67A", "self-cleavage": 0.1}
{"variant": "A21G U26C A56G U69A U72A", "self-cleavage": 0.2}
{"variant": "A21G U49C G63A A64G U67C A75G U78C", "self-cleavage": 0.07}
{"variant": "A21U G30A U41C U51C U67G", "self-cleavage": 0.1}
{"variant": "A21G U26C C27U U51A", "self-cleavage": 0.17}
{"variant": "A21U C39A A56G U72C", "self-cleavage": 0.07}
{"variant": "A21U A35G A47G A64G", "self-cleavage": 0.64}
{"variant": "A21U C38U G46C A47G C62A", "self-cleavage": 0.09}
{"variant": "A21U A56U U60A U80A", "self-cleavage": 0.13}
{"variant": "A21U A47U A64G", "self-cleavage": 0.03}
{"variant": "A21G U74A U80C C81U", "self-cleavage": 1.11}
{"variant": "A21G U49C U51A U72A", "self-cleavage": 0.24}
{"variant": "A21G U51C C62U U67C", "self-cleavage": 0.12}
{"variant": "A21U U25C G52A", "self-cleavage": 0.15}
{"variant": "A21U C37A G52A A77U", "self-cleavage": 0.23}
{"variant": "A21G U26A U48C U69C", "self-cleavage": 0.26}
{"variant": "A21U U31C A45G U54C G63A", "self-cleavage": 0.1}
{"variant": "A21U U25C A28G U43A U54C U78A", "self-cleavage": 0.05}
{"variant": "A21U A28G A45G", "self-cleavage": 0.03}
{"variant": "A21G U26C G33A U76A", "self-cleavage": 0.1}
{"variant": "A21U U26C U74C", "self-cleavage": 0.17}
{"variant": "A21G U48G U72C", "self-cleavage": 0.33}
{"variant": "A21G U41C U51G A57G", "self-cleavage": 0.35}
{"variant": "A21G U25C U26C U74A A77G", "self-cleavage": 0.29}
{"variant": "A21U U41C U60C U72A", "self-cleavage": 0.13}
{"variant": "A21G U54A G63A", "self-cleavage": 0.6}
{"variant": "A21G U31A U49A U60A", "self-cleavage": 0.17}
{"variant": "A21G U41A U43G U66C U69C U72C", "self-cleavage": 0.09}
{"variant": "A21G U54A A64G A65G U69C", "self-cleavage": 0.1}
{"variant": "A21U A45G A57G U60A A64G U66C", "self-cleavage": 0.03}
{"variant": "A21G U60C U69G", "self-cleavage": 0.19}
{"variant": "A21G U60C A64U", "self-cleavage": 0.21}
{"variant": "A21U U25C U69C", "self-cleavage": 0.12}
{"variant": "A21G U26C C32A", "self-cleavage": 0.52}
{"variant": "A21G U31A A56G U72C U78C", "self-cleavage": 0.17}
{"variant": "A21U C29U A65G U78C", "self-cleavage": 0.03}
{"variant": "A21G U41C G42U", "self-cleavage": 0.14}
{"variant": "A21G U49C U80C", "self-cleavage": 0.32}
{"variant": "A21U C27U U54A U78C", "self-cleavage": 0.32}
{"variant": "A21U U25C U48G A65G U72C A75G", "self-cleavage": 0.02}
{"variant": "A21G U67C U72A", "self-cleavage": 0.28}
{"variant": "A21G U25C A57G U72A", "self-cleavage": 0.03}
{"variant": "A21G U67A U80C", "self-cleavage": 0.21}
{"variant": "A21G U51A C62G C79A", "self-cleavage": 0.21}
{"variant": "A21G U41C A45G G46A A64U", "self-cleavage": 0.04}
{"variant": "A21U G30U U74C U80C", "self-cleavage": 0.5}
{"variant": "A21G U31C A35U U80A", "self-cleavage": 0.09}
{"variant": "A21U C32U A35G U58C", "self-cleavage": 0.1}
{"variant": "A21G U26A U31C", "self-cleavage": 0.14}
{"variant": "A21G U43A U51C G55U U72A", "self-cleavage": 0.37}
{"variant": "A21G U43C A64G A77G", "self-cleavage": 0.17}
{"variant": "A21U A28U U43C A56G", "self-cleavage": 0.17}
{"variant": "A21G U49A U69C U72C U74C", "self-cleavage": 0.11}
{"variant": "A21G U26G U31C U41C A65G C71A", "self-cleavage": 0.07}
{"variant": "A21G U26G G52A U76C", "self-cleavage": 0.02}
{"variant": "A21G U41A G42C", "self-cleavage": 0.15}
{"variant": "A21G U25C C38A C71A", "self-cleavage": 0.04}
{"variant": "A21G U26C U41C U54C", "self-cleavage": 0.27}
{"variant": "A21G U25C U51C U54A A57G C79A", "self-cleavage": 0.04}
{"variant": "A21G U41A U51A U67C U72A", "self-cleavage": 0.06}
{"variant": "A21G U41G C71U", "self-cleavage": 0.5}
{"variant": "A21G U41C U48C C59A U69C", "self-cleavage": 0.08}
{"variant": "A21U C32U U54A U66C C81U", "self-cleavage": 0.09}
{"variant": "A21G U25C A28C C40A U43C A57U", "self-cleavage": 0.27}
{"variant": "A21U A28G G46A", "self-cleavage": 0.06}
{"variant": "A21G U67C U78C", "self-cleavage": 0.11}
{"variant": "A21G U31A A57G U72A", "self-cleavage": 0.1}
{"variant": "A21U C32U A77G", "self-cleavage": 0.34}
{"variant": "A21G U26A A28G", "self-cleavage": 0.33}
{"variant": "A21G U49C A57G U80A", "self-cleavage": 0.44}
{"variant": "A21G U49A U66C", "self-cleavage": 0.72}
{"variant": "A21G U26C A47G U80A", "self-cleavage": 0.33}
{"variant": "A21G U43A U48C", "self-cleavage": 0.24}
{"variant": "A21G U25C G53C A57G U69G U72C", "self-cleavage": 0.03}
{"variant": "A21G U26C U51A A56G U69A", "self-cleavage": 0.08}
{"variant": "A21U G24A U26C U49A", "self-cleavage": 0.06}
{"variant": "A21U C50A G53C U76A A77G", "self-cleavage": 0.07}
{"variant": "A21G U31C A56G U72C", "self-cleavage": 0.16}
{"variant": "A21U U26C C38A U48C U66C A77G", "self-cleavage": 0.04}
{"variant": "A21G U25C C32A A45U U48C", "self-cleavage": 0.15}
{"variant": "A21G U41A G52C A56G U67C G70C U72C", "self-cleavage": 0.21}
{"variant": "A21G U25C U31C G33A U58A", "self-cleavage": 0.04}
{"variant": "A21G U25C U54A U72C", "self-cleavage": 0.31}
{"variant": "A21G U31A U51A U69C", "self-cleavage": 0.09}
